Reference: publication PMC6212790
This is one part of the list. At the low end of the ranking, values are background and their order means little.

molecular target: T1, GST-Rok (full length) (UniProt O34857); experiment: protein binding microarray; conditions: Rok is a gene silencer of Bacillus subtilis; high values mean tight binding; most listed sequences are background and not binding sites; double strand, one strand shown;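 further: rank score from −0.5 (least bound) to 0.5 (best bound)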
T1 sequence: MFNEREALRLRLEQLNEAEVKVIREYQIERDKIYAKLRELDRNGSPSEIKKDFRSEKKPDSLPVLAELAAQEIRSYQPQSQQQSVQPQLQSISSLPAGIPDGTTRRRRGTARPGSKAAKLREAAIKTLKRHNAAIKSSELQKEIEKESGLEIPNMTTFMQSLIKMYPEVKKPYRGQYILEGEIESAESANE

Sequence | binding signal [E-score]
CAACTTGG | -0.131
CTCATCAC | 0.0444
ATTTAATA | 0.228
ATCTGGGA | -0.127
CTTGCGTA | 0.104
CTCAGTAA | 0.086
AAAAGCTA | 0.0708
ACAACGTG | -0.0497
CATCAGTA | 0.0497
CGCCGTGC | -0.294
AGTTCTGA | 0.195
GCCCTAGC | -0.328
GCATCGCA | 0.0124
GAGACTGC | -0.106
CTTACAAA | 0.0672
ATGTACAG | 0.3
ACTGTAAA | 0.17
CTTCAAGC | -0.269
AAAACGGG | -0.119
AATGGGGT | -0.168
ACATACTA | 0.361
GAACACAC | -0.124
GGCACCGA | -0.393
CCTTCTAC | 0.214
CGCTTGAA | -0.157

Sequence | binding signal [E-score]
AGCTCGCC | -0.0406
GGTCTCGA | -0.255
CAACATTC | -0.0288
CCTGTTAC | -0.0212
CCTGTCAC | -0.265
ACGGATCA | 0.0527
AATAGGTA | 0.333
TCTCGCCA | -0.124
AACTAGAT | 0.369
GATCGAAC | 0.121
CAACAGAC | -0.0636
AACCGACC | -0.14
CATTAACG | -0.00911
AATCCCAG | -0.202
CCTAAAAG | 0.00605
TACGTTGA | 0.0836
GATTCAGA | -0.154
CCCAGATC | -0.315
AACCGTGG | -0.0188
CGTCAAAG | -0.218
ACGTTTAT | 0.145
ATGTATTG | 0.223
AACGCGTT | 0.14
ACTTATAC | 0.333
GTCGGAAC | -0.162

Sequence | binding signal [E-score]
CCCAATGC | -0.21
ACCTGAAG | 0.0462
ACAGTATA | 0.343
AGCTATGA | 0.19
ATGCGGAA | 0.0222
TTAATTAA | 0.258
CGGGTCCA | -0.258
AGACCTGA | -0.0103
GATTGTCA | 0.1
GGACAGGA | -0.211
CTCTGTTA | 0.00411
GCACGAGA | -0.157
AAGGGAAA | -0.116
ATCTACCC | 0.25
ATCAATCC | -0.0557
CTTACGTA | 0.179
CAGAGTCG | -0.14
GTCATACA | 0.0863
ACGACGAA | 0.133
CGTGTACC | -0.123
TAACACTA | 0.284
TCTGAGAA | 0.0283
GGTGTCCA | -0.279
CCTAAAGC | -0.165
TGTCGTAA | 0.217

Sequence | binding signal [E-score]
GCTAACAA | -0.0584
CGGATAAA | 0.178
ATGTCAGC | 0.0377
GTGACGGA | -0.136
AATCGGAA | 0.0335
GAGCGGCC | -0.145
AGCCACGG | -0.331
GTTCAGAA | -0.119
TATACGAA | 0.111
ACGCGATC | -0.16
AATTGTCT | 0.0901
CCTCTACC | 0.0313
TCTCTTCA | -0.149
CCTTTGAA | -0.337
CTTGACAA | -0.11
GACATGGC | 0.0109
CTATATTA | 0.384
ATTTCTAG | 0.333
AGCGGAAT | 0.133
GGCGCAAA | 0.0895
ATGCGTAC | -0.0228
AAGAAAAA | 0.0725
GACCACGC | -0.0613
AAGTGAGA | -0.0697
AGGTTCTC | -0.239

Sequence | binding signal [E-score]
TAGCGGAA | 0.245
CGGTTCAG | -0.103
CAGTAAAC | 0.081
AACTTGGA | 0.176
ACCTAAAG | -0.0934
GGACGATA | -0.0586
CATCTAGC | 0.119
ACAGAGAT | 0.103
AATGGGGA | -0.237
TCAGCAAA | -0.0262
ATTAGTAA | 0.314
GTAGCTGA | 0.219
CACTATTC | -0.0318
ACATTGAA | 0.0464
AGACCATC | -0.171
ACAACTGG | -0.111
AACAGACC | -0.0512
CAAAACGA | -0.0901
GAAAAGAC | 0.151
CACCGTAC | -0.0705
AAAGATTA | 0.125
AGACTTCC | -0.151
CTTGTAAA | 0.211
CGAATCGC | -0.207
AACATTCC | 0.103

Sequence | binding signal [E-score]
GTCTCCAC | -0.176
GCCACGTA | 0.00863
GCTAAAAC | 0.0751
TATCCTGA | -0.00716
CAGATTCC | -0.0974
TCCGATCA | -0.104
CAGAACCC | -0.227
AGACATGC | -0.0785
CCCTCACG | -0.262
AGAAGTCT | 0.0645
GATGTGTA | 0.217
CTAGTTCA | 0.152
CCAACCGA | -0.0621
ACACCACT | 0.134
AAATTTCC | 0.101
CGGCGGGA | -0.313
CGGCCCAA | -0.197
AACGGGGT | -0.166
TAGAAACA | 0.239
CTCCGCGA | -0.0969
TGTCGCAA | -0.16
ATGGATGA | 0.105
ATAGTCTA | 0.0771
ATGGGCAC | -0.145
AGTTATAT | 0.291

Sequence | binding signal [E-score]
GAGCACAC | -0.106
CCATAGAA | 0.161
CAAAAGCA | -0.242
CACAACCG | 0.019
CGTAGAAC | 0.0102
CGTTCAGA | -0.0785
GGGCCGAA | -0.346
CGACAATA | 0.0992
CTCCGACA | -0.231
GACAAACA | 0.0661
CCTGGTTA | -0.0555
ATTCAAAT | -0.0683
ATGATCGA | 0.0657
AAAGTGGG | -0.154
AAGCACAC | -0.177
AGAGGACG | -0.302
ATTTAGCC | 0.0694
GGAGAAAA | -0.0524
CTAACCCA | -0.0709
ATTACATC | 0.148
GGGGCAAC | -0.257
ACATACCC | -0.0478
